Data taken from article PMC10526831, “SUPPRESSOR OF MAX2 LIKE 6, 7, and 8 Interact with DDB1 BINDING WD REPEAT DOMAIN HYPERSENSITIVE TO ABA DEFICIENT 1 to Regulate the Drought Tolerance and Target SUCROSE NONFERMENTING 1 RELATED PROTEIN K”.
These are yes or no findings as the source states them, for the method shown. In cells and extracts the contact can be indirect. Some entries that bind do so weakly or less than the wild type. Tags and fused reporters may be left off the sequences shown.

Legend:
Assay in all cases: split reporter; BiFC; nYFP and cYFP fusions co-infiltrated into N. benthamiana leaves; confocal microscopy of epidermal cells 2 days after infiltration
[1] = molecular target: T1, SMXL3-nYFP (Arabidopsis thaliana) (UniProt Q9SVD0)
T1 sequence: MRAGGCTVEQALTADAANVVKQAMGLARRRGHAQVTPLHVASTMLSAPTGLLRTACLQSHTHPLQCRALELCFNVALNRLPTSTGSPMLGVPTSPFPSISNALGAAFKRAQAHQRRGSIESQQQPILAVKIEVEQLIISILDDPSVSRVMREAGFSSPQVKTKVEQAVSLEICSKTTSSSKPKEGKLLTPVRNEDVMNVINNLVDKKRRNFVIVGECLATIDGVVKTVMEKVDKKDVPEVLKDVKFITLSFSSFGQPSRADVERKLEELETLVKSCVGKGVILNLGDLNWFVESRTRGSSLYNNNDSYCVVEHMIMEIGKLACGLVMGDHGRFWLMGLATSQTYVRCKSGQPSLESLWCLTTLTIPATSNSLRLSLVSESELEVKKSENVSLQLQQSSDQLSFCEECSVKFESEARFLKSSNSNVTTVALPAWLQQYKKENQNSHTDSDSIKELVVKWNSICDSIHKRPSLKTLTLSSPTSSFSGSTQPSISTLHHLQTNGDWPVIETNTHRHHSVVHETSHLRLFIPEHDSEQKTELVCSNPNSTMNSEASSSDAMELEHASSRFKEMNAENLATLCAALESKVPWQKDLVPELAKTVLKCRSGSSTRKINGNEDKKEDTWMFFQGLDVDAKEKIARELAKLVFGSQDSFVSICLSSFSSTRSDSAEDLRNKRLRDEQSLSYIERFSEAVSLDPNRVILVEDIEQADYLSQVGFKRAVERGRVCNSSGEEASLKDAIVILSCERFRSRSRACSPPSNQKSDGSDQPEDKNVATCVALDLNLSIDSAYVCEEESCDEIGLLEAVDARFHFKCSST

[2] = molecular target: T2, SMXL6-nYFP (Arabidopsis thaliana) (UniProt Q9LML2)
T2 sequence: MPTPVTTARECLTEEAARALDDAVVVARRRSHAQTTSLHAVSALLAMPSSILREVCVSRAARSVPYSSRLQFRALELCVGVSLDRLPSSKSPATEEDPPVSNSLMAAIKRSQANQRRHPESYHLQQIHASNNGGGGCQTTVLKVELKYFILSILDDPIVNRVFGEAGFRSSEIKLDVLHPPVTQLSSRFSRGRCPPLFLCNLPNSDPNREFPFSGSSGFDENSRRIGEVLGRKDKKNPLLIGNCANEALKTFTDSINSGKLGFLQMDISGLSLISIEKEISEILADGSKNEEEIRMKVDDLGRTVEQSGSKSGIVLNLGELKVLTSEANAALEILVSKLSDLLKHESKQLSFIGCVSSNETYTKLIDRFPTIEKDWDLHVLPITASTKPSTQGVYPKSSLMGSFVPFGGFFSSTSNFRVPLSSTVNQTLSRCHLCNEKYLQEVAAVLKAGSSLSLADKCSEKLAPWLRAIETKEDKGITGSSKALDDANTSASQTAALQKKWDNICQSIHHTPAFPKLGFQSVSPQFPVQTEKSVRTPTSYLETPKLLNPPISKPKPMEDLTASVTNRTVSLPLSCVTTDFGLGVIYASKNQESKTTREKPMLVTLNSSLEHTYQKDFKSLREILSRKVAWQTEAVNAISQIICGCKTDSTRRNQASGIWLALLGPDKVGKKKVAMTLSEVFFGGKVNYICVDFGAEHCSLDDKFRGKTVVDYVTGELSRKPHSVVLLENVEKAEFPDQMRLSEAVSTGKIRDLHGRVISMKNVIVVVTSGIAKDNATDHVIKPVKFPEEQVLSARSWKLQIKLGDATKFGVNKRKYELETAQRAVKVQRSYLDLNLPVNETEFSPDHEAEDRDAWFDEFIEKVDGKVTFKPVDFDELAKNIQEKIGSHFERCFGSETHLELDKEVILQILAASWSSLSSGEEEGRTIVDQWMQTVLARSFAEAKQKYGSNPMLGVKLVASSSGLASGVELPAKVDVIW

[3] = molecular target: T3, SMXL7-nYFP (Arabidopsis thaliana) (UniProt O80875)
T3 sequence: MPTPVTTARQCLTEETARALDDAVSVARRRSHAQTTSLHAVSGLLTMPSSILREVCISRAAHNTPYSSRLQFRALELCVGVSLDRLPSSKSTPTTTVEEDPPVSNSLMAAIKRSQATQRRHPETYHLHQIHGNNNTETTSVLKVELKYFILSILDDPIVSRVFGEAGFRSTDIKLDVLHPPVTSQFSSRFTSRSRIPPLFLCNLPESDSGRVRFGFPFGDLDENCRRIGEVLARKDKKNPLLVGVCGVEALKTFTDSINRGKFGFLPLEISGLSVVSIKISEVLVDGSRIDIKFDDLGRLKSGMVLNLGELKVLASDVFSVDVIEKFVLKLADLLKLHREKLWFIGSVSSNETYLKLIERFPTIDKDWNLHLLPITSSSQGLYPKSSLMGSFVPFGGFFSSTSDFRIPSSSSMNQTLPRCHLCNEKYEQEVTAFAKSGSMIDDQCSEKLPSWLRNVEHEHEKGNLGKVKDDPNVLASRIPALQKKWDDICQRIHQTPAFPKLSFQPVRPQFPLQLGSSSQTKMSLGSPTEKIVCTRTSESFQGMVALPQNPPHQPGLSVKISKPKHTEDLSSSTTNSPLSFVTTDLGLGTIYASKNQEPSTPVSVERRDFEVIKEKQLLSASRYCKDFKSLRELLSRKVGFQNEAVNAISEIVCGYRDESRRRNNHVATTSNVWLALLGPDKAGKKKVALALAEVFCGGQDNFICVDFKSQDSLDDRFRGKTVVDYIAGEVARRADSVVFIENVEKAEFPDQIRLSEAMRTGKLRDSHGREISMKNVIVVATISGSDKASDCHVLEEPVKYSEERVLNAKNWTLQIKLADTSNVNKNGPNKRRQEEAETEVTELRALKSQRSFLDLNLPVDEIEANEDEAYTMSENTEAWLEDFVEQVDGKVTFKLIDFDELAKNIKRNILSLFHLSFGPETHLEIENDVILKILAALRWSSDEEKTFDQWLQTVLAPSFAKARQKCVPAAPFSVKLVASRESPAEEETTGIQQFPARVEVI

[4] = molecular target: T4, SMXL8-nYFP (Arabidopsis thaliana) (UniProt F4IGZ2)
T4 sequence: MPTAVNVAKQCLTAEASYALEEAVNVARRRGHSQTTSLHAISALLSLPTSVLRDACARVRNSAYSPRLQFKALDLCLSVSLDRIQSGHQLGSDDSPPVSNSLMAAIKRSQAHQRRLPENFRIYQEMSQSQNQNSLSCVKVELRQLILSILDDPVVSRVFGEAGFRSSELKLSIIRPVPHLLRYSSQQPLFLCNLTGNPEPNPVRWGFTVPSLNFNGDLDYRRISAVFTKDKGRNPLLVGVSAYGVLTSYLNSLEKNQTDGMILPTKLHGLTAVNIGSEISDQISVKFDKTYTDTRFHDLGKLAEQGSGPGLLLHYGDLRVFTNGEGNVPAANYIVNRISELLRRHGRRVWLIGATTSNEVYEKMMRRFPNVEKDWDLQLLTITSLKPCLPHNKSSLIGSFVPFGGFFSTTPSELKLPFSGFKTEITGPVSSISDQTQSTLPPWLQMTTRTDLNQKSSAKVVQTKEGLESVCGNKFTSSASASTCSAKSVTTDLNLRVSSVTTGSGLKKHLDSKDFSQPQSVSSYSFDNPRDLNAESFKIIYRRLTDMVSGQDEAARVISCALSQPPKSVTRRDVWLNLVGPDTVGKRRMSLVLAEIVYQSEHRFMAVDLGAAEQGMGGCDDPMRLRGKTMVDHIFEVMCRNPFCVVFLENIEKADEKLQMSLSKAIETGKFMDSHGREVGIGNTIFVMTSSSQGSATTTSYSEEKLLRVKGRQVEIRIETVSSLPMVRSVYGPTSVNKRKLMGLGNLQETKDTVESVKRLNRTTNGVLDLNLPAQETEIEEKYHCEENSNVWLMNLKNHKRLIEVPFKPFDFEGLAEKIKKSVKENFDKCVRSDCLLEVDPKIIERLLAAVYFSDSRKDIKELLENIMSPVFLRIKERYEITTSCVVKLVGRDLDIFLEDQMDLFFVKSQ

B1: DWA1-cYFP (protein, UniProt Q8L4M1 1-367)
chain: MYGDATNWNEDEYRESILKEREIETRTVFRTAWAPPARISNPDAFVVASSDGTLAFHSLNSLVSQSASFGYSKGQDVMVAEPERVVRAHEGPAYDVKFYGEDEDALLLSCGDDGRVRGWKWREFAESDVSLHLKENHLKPLLELINPQHKGPWGALSPMPEINAMSVDPQSGSVFTAAGDSCAYCWDVESGKIKMTFKGHSDYLHTVVSRSSASQILTGSEDGTARIWDCKTGKCVKVIGSQDKKSRLRVSSMALDGSESWLVCGQGKNLALWNLPASECVQTIPIPAHVQDVMFDEKQILTVGAEPLLRRFDLNGALLSQIHCAPCSVFSISLHPAGVVAVGGYGGIVDVISQFGSHLCTFRSSSL
For B1, the binding [1] was “no binding”, the binding [2] was “binds” and the binding [3] was “binds”. The binding [4] was “binds”.
